# Measurements published in PubChem BioAssay AID1460 (National Center for Advancing Translational Sciences (NCATS), 2008).
# Among all 270,000 compounds or so, about 5,800 (2.1%) were called active. The shares of active, inactive and inconclusive entries below differ from those in the screen. The call rests on the fitted dose curve; in most records, active means well fitted inhibition curve with a large enough effect; inconclusive means small, poorly fitted or top-dose-only effect; inactive means flat fitted curve, though single readings scatter. Potencies beside an inconclusive call are fits to weak or partial responses and may not hold up.
# Target: Microtubule-associated protein tau (Homo sapiens) (UniProt P10636)
# Sequence of UniProt P10636 (P10636 whole entry, looked up): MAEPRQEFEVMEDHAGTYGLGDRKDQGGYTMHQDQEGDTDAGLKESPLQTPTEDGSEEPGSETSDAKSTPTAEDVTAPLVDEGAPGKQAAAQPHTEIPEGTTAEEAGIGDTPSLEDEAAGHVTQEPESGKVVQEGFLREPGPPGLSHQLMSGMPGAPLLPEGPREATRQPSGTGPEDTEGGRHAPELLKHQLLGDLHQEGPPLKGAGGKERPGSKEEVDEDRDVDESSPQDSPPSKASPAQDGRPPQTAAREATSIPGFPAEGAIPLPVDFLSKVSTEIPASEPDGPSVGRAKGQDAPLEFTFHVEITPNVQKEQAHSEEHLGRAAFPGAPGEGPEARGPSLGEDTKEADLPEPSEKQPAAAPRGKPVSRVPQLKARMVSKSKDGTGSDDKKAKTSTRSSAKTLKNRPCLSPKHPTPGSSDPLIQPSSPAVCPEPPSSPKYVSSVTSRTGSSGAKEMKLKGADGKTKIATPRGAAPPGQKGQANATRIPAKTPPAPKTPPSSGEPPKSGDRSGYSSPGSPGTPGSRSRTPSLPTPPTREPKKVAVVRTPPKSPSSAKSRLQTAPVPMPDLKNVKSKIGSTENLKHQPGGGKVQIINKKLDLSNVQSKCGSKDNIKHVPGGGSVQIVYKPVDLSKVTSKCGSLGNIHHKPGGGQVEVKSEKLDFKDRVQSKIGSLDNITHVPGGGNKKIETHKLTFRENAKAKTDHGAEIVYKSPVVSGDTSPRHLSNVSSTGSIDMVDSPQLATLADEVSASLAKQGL
# Assay: qHTS for Inhibitors of Tau Fibril Formation, Thioflavin T Binding; further: nearly all actives have a fitted effect of over 55% in size
# Settings: recombinant tau K18 P301L (four-repeat tau fragment), heparin-induced fibrillization, ThT fluorescence; series mostly up to 57.4 µM
# Method in brief: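 Heparin-induced fibrillization of the P301L-mutant K18 repeat-domain fragment of human tau was followed by ThT binding in quantitative high-throughput format.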
# Potency means the concentration at half of the fitted maximal effect; tags describe the fitted curve by direction and shape.
row,Structure (SMILES),Potency
1,C[C@@H](CO)NC(=O)c1ccc2c3n(nc2c1)-c1ccccc1CO3,inactive
2,COC(=O)c1ccccc1NC(=S)NC(=O)c1ccccc1,"inconclusive: 14.1 µM [inhibitor, partial curve]"
3,O=C(c1ccccn1)c1conc1C(=O)c1ccc(Br)cc1,"inconclusive: 31.6 µM [inhibitor, partial curve]"
4,CCCNC(=O)Cn1nc(-c2ccc(C)cc2)c2cnc3ccc(CC)cc3c21,"inconclusive: 6.31 µM [inhibitor, partial curve, poor fit]"
5,CC(Sc1ccsc1[N+](=O)[O-])C(=O)N1CCN(c2ccccn2)CC1 (configuration not stated),"inconclusive: 25.1 µM [inhibitor, partial curve, poor fit]"
6,O=C(CNC(=O)c1ccc(Cl)cc1)Nc1ccc(S(=O)(=O)Nc2ncccn2)cc1,inactive
7,COc1ccc(-n2c(COc3cccc4cccnc34)nnc2SCC(=O)O)cc1,inactive
8,CCc1noc(C)c1C(=O)Nc1nc(-c2ccc(Cl)cc2Cl)cs1,"inconclusive: 31.6 µM [inhibitor, single point]"
9,CCOC(=O)N1CCN(CCC(=O)c2ccc(OC)cc2)CC1,"inconclusive: 0.794 µM [inhibitor, full curve]"
10,COc1ccc(C(=O)N/N=C2/SCC(=O)N2Cc2ccc3c(c2)OCO3)cc1OC,inactive
11,COc1ccccc1NS(=O)(=O)c1cc(NC(=O)c2ccncc2)ccc1N1CCCC1,"inconclusive: 25.1 µM [inhibitor, single point]"
12,Cc1cc(N2CCN(C(=O)c3ccco3)CC2)n2nc(-c3cccc(F)c3)cc2n1,"inconclusive: 35.5 µM [inhibitor, single point]"
13,CC(=O)c1cccc(N/C=C\C(=O)c2ccc(C)cc2)c1,"inconclusive: 3.16 µM [inhibitor, full curve, poor fit]"
14,CN(CC(=O)Nc1ccc(N2CCOCC2)cc1)CC(=O)Nc1ccc(C(F)(F)F)cc1,"inconclusive: 4.47 µM [inhibitor, partial curve, poor fit]"
15,CCOc1ccc(S(=O)(=O)N/N=C(\C)Cc2ccc(OC)cc2)cc1,inactive
16,COc1ccc(N(CC(C)C)S(=O)(=O)c2nnc(NC(=O)c3ccco3)s2)cc1,"inconclusive: 0.562 µM [inhibitor, full curve]"
17,Cc1[nH]c2ccccc2c1/C=C/C(=O)c1ccccc1,"inconclusive: 22.4 µM [inhibitor, single point]"
18,CC(C)(C)c1ccc(OCC(=O)NCc2ccco2)cc1,inactive
19,O=C(Cn1ncn2cccc2c1=O)NCc1cccc(Br)c1,"inconclusive: 8.91 µM [activator, full curve]"
20,O=C(CCc1nc2ccccc2s1)NC1CCOC1=O (configuration not stated),inactive
21,c1csc(-c2ccnc3ncnn23)c1,inactive
22,O=C(NCc1cccc(Cl)c1)C1CCCN(c2nn3cc(-c4ccc(F)cc4)nc3s2)C1 (configuration not stated),"inconclusive: 3.98 µM [inhibitor, partial curve, poor fit]"
23,Cc1cc(/C=N/n2cnnc2)c(C)n1-c1ccc(OCc2ccc(F)cc2)cc1,"inconclusive: 17.8 µM [inhibitor, partial curve]"
24,CC(C)C1N(C(N)=S)N=CC1(C)C (configuration not stated),inactive

row,Structure (SMILES),Potency
1,O=S(=O)(c1ccccc1)c1nc(-c2ccco2)oc1Nc1ccccc1,"inconclusive: 22.4 µM [inhibitor, single point]"
2,Cc1cc(C(=O)N/N=C2\CCCc3ccccc32)c(C)o1,"inconclusive: 2.51 µM [inhibitor, full curve]"
3,CCCOC(=O)c1cccc(NC(=O)CSc2nnc3cc(C)c4ccccc4n23)c1,inactive
4,CCCN(CCC)CCNc1c(N2CCN(C(=O)OCC)CC2)c(=O)c1=O,"inconclusive: 2.51 µM [inhibitor, full curve, poor fit]"
5,CCN(CC)C(=O)C(=O)c1cccn1-c1ccccc1C#N,inactive
6,S=c1[nH]nc(-c2ccco2)n1/N=C/C=C/c1ccccc1,"inconclusive: 31.6 µM [inhibitor, partial curve]"
7,Cc1cccc(N2CCN(Cc3nnc(-c4cccc(Br)c4)o3)CC2)c1C,"inconclusive: 11.2 µM [inhibitor, partial curve]"
8,Cc1cc(C2=NNC(=NCCc3ccccc3)SC2)c(C)n1-c1c(C)n(C)n(-c2ccccc2)c1=O,"inconclusive: 25.1 µM [inhibitor, single point]"
9,CC(C)C(NS(=O)(=O)c1c(Cl)cccc1Cl)C(=O)OCC(=O)c1c[nH]c2ccccc12 (configuration not stated),inactive
10,Cc1cc(C(=O)COC(=O)CC2Sc3ccccc3NC2=O)c(C)n1-c1ccc(Br)cc1 (configuration not stated),inactive
11,COc1ccc(CCNC(=O)c2ccc3c(c2)nc2n3CCCCC2)cc1OC,"inconclusive: 12.6 µM [inhibitor, partial curve, poor fit]"
12,Cc1ccc(Cl)cc1NC(=O)CN1C(=O)c2ccccc2Sc2ncccc21,"inconclusive: 10 µM [inhibitor, partial curve]"
13,CC(C)c1ccc(Nc2nc(CC(=O)O)cs2)cc1,"inconclusive: 5.01 µM [inhibitor, partial curve]"
14,Cc1ccc(NCc2cc3cc4c(cc3n(CC(=O)Nc3ccc(C)cc3)c2=O)OCCO4)cc1,inactive
15,C=C1C(=O)OC2C1CC/C(C)=C/CCC1(C)OC21 (configuration not stated),"inconclusive: 2.24 µM [inhibitor, partial curve, poor fit]"
16,CCOC(=O)c1cnc2ccc(OCC)cc2c1N1CCN(c2ccccc2)CC1,"inconclusive: 12.6 µM [inhibitor, partial curve]"
17,c1csc(C2=NNC(=NC3CCCCC3)SC2)c1,"inconclusive: 28.2 µM [inhibitor, single point]"
18,O=C(O)c1cccc(-n2cccc2/C=C\[N+](=O)[O-])c1,"inconclusive: 25.1 µM [inhibitor, partial curve, poor fit]"
19,Cc1ccc2nsnc2c1S(=O)(=O)Nc1cccc2nsnc12,"inconclusive: 25.1 µM [inhibitor, partial curve]"
20,CCC(C(=O)O)N1C(=O)/C(=C/C(C)=C/c2ccccc2)SC1=S (configuration not stated),active: 17.8 µM
21,Cn1nc(C(=O)Oc2cc(=O)n(C)c3ccccc23)c2ccccc2c1=O,inactive
22,COc1ccc(N=Nc2n(C)c3ccccc3[n+]2C)cc1,active: 3.16 µM
23,Cc1c(Cl)cccc1NC(=S)NCc1ccccc1Cl,inactive
24,CCOc1ccc(N2C(=O)/C(=C\c3ccc(O)c(OC)c3)S(=O)(=O)C2c2cccc([N+](=O)[O-])c2)cc1 (configuration not stated),"inconclusive: 31.6 µM [inhibitor, partial curve]"

row,Structure (SMILES),Potency
1,O=C(OCc1nnc(-c2ccccc2)o1)c1ccco1,inactive
2,Cc1cccc(N2CN=c3s/c(=C\c4ccccn4)c(=O)n3C2)c1,"inconclusive: 6.31 µM [inhibitor, partial curve]"
3,COc1ccc(OC)c([C@@H]2Nc3ccc(C(=O)O)cc3[C@@H]3C=CC[C@@H]32)c1,"inconclusive: 39.8 µM [inhibitor, single point]"
4,CC(=O)c1ccc(NC(=O)CCNS(=O)(=O)c2cccc3nonc23)cc1,inactive
5,CCOc1cc(CNc2ccc(N3CCOCC3)cc2)cc(Br)c1OCC,"inconclusive: 17.8 µM [inhibitor, partial curve]"
6,COc1ccc(N2CCn3c2nc2c3c(=O)n(CCc3ccccc3)c(=O)n2C)cc1,"inconclusive: 0.562 µM [inhibitor, full curve]"
7,CCNC(=S)N/N=C/c1cccs1,inactive
8,CCOC(=O)c1ccc(NC(=O)Nc2ccc(F)cc2)cc1,"inconclusive: 25.1 µM [activator, single point]"
9,Oc1cc(O)c2c(c1)OC(c1ccc(O)c(O)c1)C(O)C2 (configuration not stated),active: 14.1 µM
10,Cc1ccc(NCCNc2ccc(C)cc2)cc1,"inconclusive: 7.94 µM [inhibitor, partial curve]"
11,CC/C(C)=N/Nc1nc2c(c(=O)[nH]c(=O)n2C)n1CCc1ccccc1,"inconclusive: 20 µM [inhibitor, partial curve]"
12,CSc1nnc(NC(=O)c2cc(=O)c3cc(C)c(C)cc3o2)s1,"inconclusive: 12.6 µM [inhibitor, partial curve, poor fit]"
13,CCn1c(COc2ccc(C(C)C)cc2)nnc1SCC(=O)Nc1nccs1,inactive
14,Cc1ccc2nc(NC(=O)CCCc3nc4ccccc4s3)sc2c1,"inconclusive: 2.51 µM [inhibitor, full curve]"
15,COc1ccc(CNC(=O)C(CC(C)C)NS(=O)(=O)c2ccc3c(c2)oc(=O)n3C)cc1 (configuration not stated),inactive
16,CCc1cccc(NC(=O)c2cc3c(=O)oc4ccc(C)cc4c3s2)c1,inactive
17,Cc1ccc(C)c(S(=O)(=O)c2nnn3c2nc(NC2CCCC2)c2sccc23)c1,inactive
18,CCc1ccc(-c2nnn(Cc3nc4ccccc4s3)n2)cc1,"inconclusive: 14.1 µM [inhibitor, single point]"
19,Cc1csc(=N)n1-c1ccc(Cl)cc1,"inconclusive: 17.8 µM [inhibitor, single point]"
20,COc1ccc(N(CC(=O)N2CCCCC2)S(=O)(=O)c2ccc(OC)c(OC)c2)cc1,inactive
21,Cc1ccc2oc(C(=O)N3CCC(c4nc5ccccc5s4)CC3)c(C)c2c1,"inconclusive: 10 µM [inhibitor, partial curve]"
22,CCCc1ccc(OCc2ccc(C(=O)Nc3ccccc3C(=O)OC)o2)cc1,"inconclusive: 39.8 µM [inhibitor, single point]"
23,O=C(Nc1ccc2c(c1)OCO2)c1cnn2cccnc12,"inconclusive: 28.2 µM [inhibitor, partial curve]"
24,COc1ccc(N2CCN(c3ncccc3C#N)CC2)cc1,"inconclusive: 10 µM [inhibitor, partial curve]"
